This passage reports IC50 results from US9763922B2 (priority 2014, dated 2017).

The assay deals with MYC. Nature of the assay: cells. Conditions: Homo sapiens, MV4-11, 4 h, read-out: Myc IC50 (μM).

Broadly, the IC50 is the midpoint of a concentration-inhibition curve. Regarding `CC(=O)N1CCc2c(c(N3CC(c4ccccc4)Cc4cc(-c5cnn(C)c5)ccc43)nn2C2CCOC2)C1` (centres unmarked) [Example 118, 1-[3-[6-(1-methylpyrazol-4-yl)-3-phenyl-3,4-dihydro-2H-quinolin-1-yl]-1-tetrahydrofuran-3-yl-6,7-dihydro-4H-pyrazolo[4,3-c]pyridin-5-yl]ethanone], the IC50 came out at 0.809 µM. Turning to `CC(=O)N1CCc2c(c(N3C[C@H](c4ccccc4)Cc4cc(-c5cnn(C)c5)ccc43)nn2[C@H]2CCOC2)C1` [Example 119, (S, S)-1-[3-[6-(1-methylpyrazol-4-yl)-3-phenyl-3,4-dihydro-2H-quinolin-1-yl]-1-tetrahydrofuran-3-yl-6,7-dihydro-4H-pyrazolo[4,3-c]pyridin-5-yl]ethanone], the IC50 is 0.657 µM. The same measure for `CC(=O)N1CCc2c(c(Nc3ccc(-c4cccnc4)cc3)nn2C)C1` [Example 119, (S, S)-1-[3-[6-(1-methylpyrazol-4-yl)-3-phenyl-3,4-dihydro-2H-quinolin-1-yl]-1-tetrahydrofuran-3-yl-6,7-dihydro-4H-pyrazolo[4,3-c]pyridin-5-yl]ethanone]: 1.03 µM; for `CC(=O)N1CCc2c(c(N3CCCc4cc(-c5cnn(C)c5)c(C(F)F)cc43)nn2C2COC2)C1` [Example 122, 1-[3-[7-(difluoromethyl)-6-(1-methylpyrazol-4-yl)-3,4-dihydro-2H-quinolin-1-yl]-1-(oxetan-3-yl)-6,7-dihydro-4H-pyrazolo[4,3-c]pyridin-5-yl]ethanone]: 0.274 µM. Take `CC(=O)N1CCc2c(c(N3CCCc4cc(-c5cnn(C)c5)c(C(F)F)cc43)nn2C2CCOC2)C1` (centres unmarked) [Example 123, 1-[3-[7-(difluoromethyl)-6-(1-methylpyrazol-4-yl)-3,4-dihydro-2H-quinolin-1-yl]-1-tetrahydrofuran-3-yl-6,7-dihydro-4H-pyrazolo[4,3-c]pyridin-5-yl]ethanone]: the IC50 worked out at 0.233 µM. On to `CCn1cc(-c2ccc(Nc3nn(C)c4c3CN(C(C)=O)CC4)cc2)cn1` [Example 123, 1-[3-[7-(difluoromethyl)-6-(1-methylpyrazol-4-yl)-3,4-dihydro-2H-quinolin-1-yl]-1-tetrahydrofuran-3-yl-6,7-dihydro-4H-pyrazolo[4,3-c]pyridin-5-yl]ethanone], for which the half-inhibitory concentration (IC50) worked out at 0.99 µM. Regarding `CNC(=O)c1ccc(-c2cc3c(cc2C(F)F)N(c2nn(C4CCOCC4)c4c2CN(C(C)=O)CC4)CCC3)cn1` [Example 124, 5-(1-(5-acetyl-1-(tetrahydro-2H-pyran-4-yl)-4,5,6,7-tetrahydro-1H-pyrazolo[4,3-c]pyridin-3-yl)-7-(difluoromethyl)-1,2,3,4-tetrahydroquinolin-6-yl)-N-methylpicolinamide], the half-maximal inhibitory concentration (IC50) came out at 0.006 µM. On to `CC(=O)N1CCc2c(c(N3CCCc4cc(-c5cnn(C)c5)c(Cl)cc43)nn2[C@H]2CCOC2)C1` [Example 125, 1-[3-[7-chloro-6-(1-methylpyrazol-4-yl)-3,4-dihydro-2H-quinolin-1-yl]-1-[(3S)-tetrahydrofuran-3-yl]-6,7-dihydro-4H-pyrazolo[4,3-c]pyridin-5-yl]ethanone], for which the half-inhibitory concentration (IC50) turned out to be 0.259 µM. Consider `CC(=O)N1CCc2c(c(N3CCCc4cc(-c5cnn(C)c5)c(C#N)cc43)nn2[C@H]2CCOC2)C1` [Example 126, 1-[5-acetyl-1-[(3S)-tetrahydrofuran-3-yl]-6,7-dihydro-4H-pyrazolo[4,3-c]pyridin-3-yl]-6-(1-methylpyrazol-4-yl)-3,4-dihydro-2H-quinoline-7-carbonitrile], for which the half-inhibitory concentration (IC50) is 0.087 µM. As to `CC(=O)N1CCc2c(c(N3CCCc4cc(-c5cnn(C)c5)c(C#N)cc43)nn2C2COC2)C1` [Example 127, 1-[5-acetyl-1-(oxetan-3-yl)-6,7-dihydro-4H-pyrazolo[4,3-c]pyridin-3-yl]-6-(1-methylpyrazol-4-yl)-3,4-dihydro-2H-quinoline-7-carbonitrile], the IC50 is 0.693 µM. As for `CC(=O)N1CCc2c(c(N3CCCc4cc(-c5cnn(C)c5)c(C#N)cc43)nn2C2CCOCC2)C1` [Example 128, 1-(5-acetyl-1-tetrahydropyran-4-yl-6,7-dihydro-4H-pyrazolo[4,3-c]pyridin-3-yl)-6-(1-methylpyrazol-4-yl)-3,4-dihydro-2H-quinoline-7-carbonitrile], the IC50 came to 0.027 µM. With `CC(=O)N1CCc2c(c(N3CCCc4cc(-c5cnn(C)c5C)c(C#N)cc43)nn2C2CCOCC2)C1` [Example 129, 1-(5-acetyl-1-tetrahydropyran-4-yl-6,7-dihydro-4H-pyrazolo[4,3-c]pyridin-3-yl)-6-(1,5-dimethylpyrazol-4-yl)-3,4-dihydro-2H-quinoline-7-carbonitrile], the IC50 worked out at 0.028 µM. As to `CC(=O)N1CCc2c(c(N3CCCc4cc(-c5cnn(C)c5C)c(C#N)cc43)nn2C2COC2)C1` [Example 130, 1-[5-acetyl-1-(oxetan-3-yl)-6,7-dihydro-4H-pyrazolo[4,3-c]pyridin-3-yl]-6-(1,5-dimethylpyrazol-4-yl)-3,4-dihydro-2H-quinoline-7-carbonitrile], the half-maximal inhibitory concentration (IC50) was 0.323 µM.

For the compound `CNC(=O)c1ccc(-c2cc3c(cc2C#N)N(c2nn([C@H]4CCOC4)c4c2CN(C(C)=O)CC4)CCC3)cn1` [Example 131, 5-[1-[5-acetyl-1-[(3S)-tetrahydrofuran-3-yl]-6,7-dihydro-4H-pyrazolo[4,3-c]pyridin-3-yl]-7-cyano-3,4-dihydro-2H-quinolin-6-yl]-N-methyl-pyridine-2-carboxamide], the IC50 is 0.051 µM. For the compound `CC(=O)N1CCc2c(c(N3CCCc4c3ccc(-c3cnn(C)c3)c4C#N)nn2[C@H]2CCOC2)C1` [Example 132, 1-[5-acetyl-1-[(3S)-tetrahydrofuran-3-yl]-6,7-dihydro-4H-pyrazolo[4,3-c]pyridin-3-yl]-6-(1-methylpyrazol-4-yl)-3,4-dihydro-2H-quinoline-5-carbonitrile], the IC50 amounted to 0.737 µM.

With `CNC(=O)c1ccc(-c2cc3c(cc2C#N)N(c2nn(C4CCOCC4)c4c2CN(C(C)=O)CC4)CCC3)cn1` [Example 133, 5-(1-(5-acetyl-1-(tetrahydro-2H-pyran-4-yl)-4,5,6,7-tetrahydro-1H-pyrazolo[4,3-c]pyridin-3-yl)-7-cyano-1,2,3,4-tetrahydroquinolin-6-yl)-N-methylpicolinamide], the IC50 was 0.047 µM. The same measure for `CC(=O)N1CCc2c(c(N3CCCc4cc(-c5cnn(C)c5)c(C)cc43)nn2[C@H]2CCOC2)C1` [Example 134, 1-[3-[7-methyl-6-(1-methylpyrazol-4-yl)-3,4-dihydro-2H-quinolin-1-yl]-1-[(3S)-tetrahydrofuran-3-yl]-6,7-dihydro-4H-pyrazolo[4,3-c]pyridin-5-yl]ethanone]: 0.957 µM; for `CC(=O)N1CCc2c(c(N3CC(O)Cc4cc(-c5cnn(C)c5)ccc43)nn2[C@H]2CCOC2)C1` (stereo partly drawn) [Example 135, (S)-1-[3-[3-hydroxy-6-(1-methylpyrazol-4-yl)-3,4-dihydro-2H-quinolin-1-yl]-1-tetrahydrofuran-3-yl-6,7-dihydro-4H-pyrazolo[4,3-c]pyridin-5-yl]ethanone]: 1.07 µM; for `CC(=O)N1CCc2c(c(N3CCCc4cc(-c5cnn(C)c5)c(F)cc43)nn2C2CCOCC2)C1` [Example 141, 1-[3-[7-fluoro-6-(1-methylpyrazol-4-yl)-3,4-dihydro-2H-quinolin-1-yl]-1-tetrahydropyran-4-yl-6,7-dihydro-4H-pyrazolo[4,3-c]pyridin-5-yl]ethanone]: 0.206 µM.

In the case of `CC(=O)N1CCc2c(c(N3CCCc4cc(-c5cnn(C)c5)c(F)cc43)nn2C2CCOC2)C1` (centres unmarked) [Example 142, 1-[3-[7-fluoro-6-(1-methylpyrazol-4-yl)-3,4-dihydro-2H-quinolin-1-yl]-1-tetrahydrofuran-3-yl-6,7-dihydro-4H-pyrazolo[4,3-c]pyridin-5-yl]ethanone], the IC50 came to 1.35 µM. The same measure for `CC(=O)N1CCc2c(c(N3CCCc4cc(-c5cnn(C)c5)c(F)cc43)nn2[C@H]2CCOC2)C1` [Example 143, 1-[3-[7-fluoro-6-(1-methylpyrazol-4-yl)-3,4-dihydro-2H-quinolin-1-yl]-1-[(3S)-tetrahydrofuran-3-yl]-6,7-dihydro-4H-pyrazolo[4,3-c]pyridin-5-yl]ethanone]: 0.16 µM; for `CC(=O)N1CCc2c(c(N3CCCc4cc(-c5cnn(C)c5)c(F)cc43)nn2C2COC2)C1` [Example 144, 1-[3-[7-fluoro-6-(1-methylpyrazol-4-yl)-3,4-dihydro-2H-quinolin-1-yl]-1-(oxetan-3-yl)-6,7-dihydro-4H-pyrazolo[4,3-c]pyridin-5-yl]ethanone]: 1.02 µM. To `COc1cc2c(cc1-c1cnn(C)c1)CCCN2c1nn([C@H]2CCOC2)c2c1CN(C(C)=O)CC2` [Example 145, 1-[3-[7-methoxy-6-(1-methylpyrazol-4-yl)-3,4-dihydro-2H-quinolin-1-yl]-1-[(3S)-tetrahydrofuran-3-yl]-6,7-dihydro-4H-pyrazolo[4,3-c]pyridin-5-yl]ethanone] belongs 0.055 µM; to `CC(=O)N1CCc2c(c(N3CCCc4cc(-c5cnn(C)c5)c(OC(F)F)cc43)nn2C2CCOCC2)C1` [Example 146, 1-[3-[7-(difluoromethoxy)-6-(1-methylpyrazol-4-yl)-3,4-dihydro-2H-quinolin-1-yl]-1-tetrahydropyran-4-yl-6,7-dihydro-4H-pyrazolo[4,3-c]pyridin-5-yl]ethanone], 0.051 µM.

As for `CC(=O)N1CCc2c(c(N3CCCc4cc(-c5cnn(C)c5)c(OC(F)F)cc43)nn2C2COC2)C1` [Example 147, 1-[3-[7-(difluoromethoxy)-6-(1-methylpyrazol-4-yl)-3,4-dihydro-2H-quinolin-1-yl]-1-(oxetan-3-yl)-6,7-dihydro-4H-pyrazolo[4,3-c]pyridin-5-yl]ethanone], the half-inhibitory concentration (IC50) worked out at 0.135 µM.

Regarding `CC(=O)N1CCc2c(c(N3CCCc4cc(-c5cnn(C)c5)c(OC(F)(F)F)cc43)nn2[C@H]2CCOC2)C1` [Example 149, 1-[3-[6-(1-methylpyrazol-4-yl)-7-(trifluoromethoxy)-3,4-dihydro-2H-quinolin-1-yl]-1-[(3S)-tetrahydrofuran-3-yl]-6,7-dihydro-4H-pyrazolo[4,3-c]pyridin-5-yl]ethanone], the IC50 was found to be 0.004 µM.
